Source: PubChem BioAssay (NCATS)
The shares of active, inactive and inconclusive entries below differ from those in the screen. For some assays here: No potency is given beside an inconclusive call; the fits are too rough. Calls of active or inactive are those of the source. Unless noted, calls come from the whole dose curve; as a rule, active = well fitted curve in the direction sought with a large enough effect; inconclusive = small, poorly fitted or top-dose-only effect, or another doubt; inactive = no such curve, though single readings can be large; an effect the other way counts as inactive or inconclusive.

Tests used:
[1] = tested on: Zika virus NS2B-NS3 protease (linked construct); assay: Primary screen NINDS Rhodamine qHTS for Zika virus inhibitors (AID 1347160); note: nearly all actives have a fitted effect of over 55% in size
In short: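 Rhodamine110-peptide cleavage (1.5 µM substrate) by 25 nM linked NS2B-NS3 enzyme at pH 8.0 (Tris, Tween 20), after 15 min RT preincubation with compounds; 15-min fluorescence change normalized to controls and Hill-fitted.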

HeLa = assay: Primary qHTS to identify gynecologic anti-cancer compounds using libraries of approved drugs and bioactive compounds (AID 1345084); details: Gynecologic cancer cell panel viability, ATPlite luminescence, 48 h; series mostly up to 57.5 µM; note: nearly all actives have a fitted effect of over 55% in size
In short: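 Cells, 1,000 per well, plated 16 h, then exposed 48 h at 37 C to compounds. Viability by ATPlite luminescence after 15 min at room temperature.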

[2] = Primary redox qHTS assay for identification of artifact compounds. (AID 1845223)
In short: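 Redox-cycling detection via DTT (250 uM final) oxidation coupled to Amplex Red (25 uM)/HRP (250 mU/mL) in HBSS. 15 min preincubation plus 30 min after DTT, room temperature. Ex/Em 525/598 nm; 4-parameter Hill fit against DMSO and 10 uM DA3003.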

[3] = qHTS of pediatric cancer cell lines to identify multiple opportunities for drug repurposing: Primary screen for SK-N-MC cells (AID 1347093); details: SK-N-MC viability, CellTiter-Glo luminescence, 48 h; activity change, negative = cytotoxic: at 46 µM (top of the series)
In short: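 Metabolically active cells were quantified by ATP-dependent luminescence (CellTiter-Glo, 15 min at room temperature) following 48 h treatment. Cells had been plated at 500-1,000 per well and settled for 5 h beforehand.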

[4] = qHTS of pediatric cancer cell lines to identify multiple opportunities for drug repurposing: Primary screen for NB-EBc1 cells (AID 1347095)
In short: (§1)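 Primary screen of approved and investigational compounds on cells in growth media at 37 degrees C, 5% CO2. MIPE set at 11-point and NPC set at 8-point dilutions; viability scored by ATP-based luminescence at 48 hours.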

[5] = qHTS of pediatric cancer cell lines to identify multiple opportunities for drug repurposing: Primary screen for NB1643 cells (AID 1347099); note: nearly all actives have a fitted effect of over 50% in size
In short: as §1

[6] = qHTS of pediatric cancer cell lines to identify multiple opportunities for drug repurposing: Primary screen for Rh18 cells (AID 1347102); note: nearly all actives have a fitted effect of over 65% in size
In short: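 Cells (500-1,000/well) in growth media were settled 5 h at 37 degrees C, then given compounds for 48 h. Viability was read as CellTiter-Glo luminescence. Primary runs used MIPE at 11 points (0.78 nM-46 µM) and NPC at 8 points (0.59 nM-46 µM); follow-ups used 11 points.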

[7] = A High-Content qHTS Against Drug Library for the Identification of Small Molecules that Inhibit DYT1 Early Onset Primary Dystonia-Associated Cell Pathology (AID 1645839; calls by dose curve)
In short: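 Induced EGFP-delE TorsinA cells are imaged after 48 h of compound treatment. Punctate fusion-protein distribution gives the %pathology value, while nuclei counts flag toxicity. Wild-type EGFP-hTOR1A cells define the normal pattern.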

[8] = biological target: Cytochrome P450 2D6 (Homo sapiens) (UniProt P10635); assay: Cytochrome P450 family 2 subfamily D member 6 (CYP2D6) small molecule antagonists: luciferase biochemical (cell-free) qHTS assay (AID 1645840; active = well fitted curve in the direction sought with a large enough effect in the repeat runs; inconclusive = weak or mixed curves; inactive = no such curve, though single readings can be large; an effect the other way counts as inactive or inconclusive; note: nearly all actives have a fitted effect of over 55% in size)
Chain of UniProt P10635 (P10635 whole entry, looked up): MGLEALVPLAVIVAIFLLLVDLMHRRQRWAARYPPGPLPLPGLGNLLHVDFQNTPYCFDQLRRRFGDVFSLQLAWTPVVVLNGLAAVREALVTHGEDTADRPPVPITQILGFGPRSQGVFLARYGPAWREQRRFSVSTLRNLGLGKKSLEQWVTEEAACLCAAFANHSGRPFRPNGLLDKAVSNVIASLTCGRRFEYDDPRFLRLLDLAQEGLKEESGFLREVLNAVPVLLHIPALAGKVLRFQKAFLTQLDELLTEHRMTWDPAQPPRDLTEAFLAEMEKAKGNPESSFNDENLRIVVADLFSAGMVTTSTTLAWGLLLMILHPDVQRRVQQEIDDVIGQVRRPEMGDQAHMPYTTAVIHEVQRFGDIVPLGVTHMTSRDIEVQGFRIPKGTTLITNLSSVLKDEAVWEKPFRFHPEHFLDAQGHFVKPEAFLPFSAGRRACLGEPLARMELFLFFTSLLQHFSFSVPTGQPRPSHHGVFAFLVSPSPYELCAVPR
In short: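 P450-Glo CYP2D6 system: proluciferin substrate converted by enzyme to luciferin, read by luminescence proportional to activity. Enzyme-substrate mix with compound 10 min at room temperature, then NADPH regeneration 1 h before detection reagent.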

MKL-1 = assay: qHTS assay to identify novel small-molecules to repurpose for Merkel cell carcinoma treatment (AID 1296009); details: MCC and control cell lines, CellTiter-Glo viability, 72 h; activity change, negative = cytotoxicity: at 46 µM (top of the series); note: nearly all actives have a fitted effect of over 60% in size
In short: (§2)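 Viability readout: ATP luminescence (CellTiter-Glo) after 72 hr drug exposure at 37 degree celsius. Dose-response format was 8 points for NPC and 11 points for MIPE; data normalized to in-plate controls.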

UISO = assay: as above; details: MCC and control cell lines, CellTiter-Glo viability, 72 h; activity change, negative = cytotoxicity: at 46 µM (top of the series)
In short: as §2

WaGa = assay: as above; details: MCC and control cell lines, CellTiter-Glo viability, 72 h; series mostly up to 46 µM
In short: as §2

[9] = qHTS of pediatric cancer cell lines to identify multiple opportunities for drug repurposing: Primary screen for BT-37 cells (AID 1347094)
In short: as §1

[10] = qHTS of pediatric cancer cell lines to identify multiple opportunities for drug repurposing: Primary screen for OHS-50 cells (AID 1347103); note: nearly all actives have a fitted effect of over 40% in size
In short: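 Cells (500-1,000/well) rested 5 h, then received compounds for 48 h; metabolically active cells were measured by CellTiter-Glo luminescence. Final concentrations spanned up to 46 µM (MIPE, 11-point) or 0.59 nM-46 µM (NPC, 8-point) in primary screens, 11-point in follow-ups.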
Potency is the fitted concentration of half-maximal effect; tags give direction and shape of the fitted curve.

CCCc1c(C(C)C)nc(C(C)C)c([C@@H](C)O)c1-c1ccc(F)cc1O
Potency [1]: active: 14.1 µM
Potency (HeLa): inconclusive [cytotoxic, single point]

CC(=O)OC1C(O)CC2(C)C(CCC3(C)C2CC=C2C4C5(CCC(CO[C@@H]6O[C@H](CO)[C@@H](O)[C@H](O)[C@H]6O)(OC5=O)C4(C)O)C(O)CC23C)C1(C)C (stereo partly specified)
Potency [2]: inconclusive [activator, single point]

CCCCCCCCc1ccc(CCC(N)(CO)CO)cc1
Potency [3]: active: 1.87 µM
Potency [4]: active: 16.6 µM

CC(=O)OC1CCC2(C)C(CCC3(C)C2CC=C2C4C(C)C(C)CCC4(C)CCC23C)C1(C)C(=O)O (stereo unspecified)
Potency [1]: inconclusive [inhibitor, full curve]

CCC1=C[C@@H]2CN(C1)Cc1c([nH]c3ccccc13)[C@@](C(=O)OC)(c1cc3c(cc1OC)N(C)[C@H]1[C@@](O)(C(=O)OC)[C@H](OC(C)=O)[C@]4(CC)C=CCN5CC[C@]31[C@@H]54)C2
Potency [5]: active: 2.66 µM
Potency [6]: inconclusive [cytotoxic, full curve, poor fit]
Potency [7]: inconclusive [inhibitor, full curve, poor fit]
Potency [8]: inconclusive [inhibitor, partial curve]
Potency (MKL-1): inconclusive [inhibitor, full curve, poor fit]
Potency (UISO): active: 0.0119 µM
Potency (WaGa): inconclusive [inhibitor, full curve, poor fit]
Potency (HeLa): inconclusive

O=C(CCCN1CCC(O)(c2ccc(Br)cc2)CC1)c1ccc(F)cc1
Potency [9]: active: 0.001 µM
Potency [4]: inactive
Potency [5]: active: 0.0237 µM
Potency [6]: inconclusive [cytotoxic, full curve]
Potency [7]: inconclusive [inhibitor, single point]
Potency (WaGa): inconclusive [inhibitor]

COc1ccccc1N1CCN(CC[C@@](C)(C(=O)C2CCCCC2)c2ccccc2)CC1
Potency [2]: inactive

C=CC(C)(O)CC/C=C(\C)COC1O[C@H](CO)[C@@H](O)[C@H](O)[C@H]1O (stereo partly specified)
Potency [1]: inconclusive [inhibitor, partial curve, poor fit]

C=C1C(=O)OC2C1CCC(=C)C1CC(OC(C)=O)C(=C)C12 (stereo unspecified)
Potency [1]: inconclusive [inhibitor, partial curve]
Potency [2]: inconclusive [activator, full curve, poor fit]

CC(N=C(NC#N)Nc1ccncc1)C(C)(C)C (stereo unspecified)
Potency [5]: inactive
Potency [10]: inconclusive [cytotoxic, full curve, poor fit]
